± gives the standard deviation of the averaged measurements. Growth of baker's yeast expressing single-residue variants of Pneumocystis jirovecii dihydrofolate reductase in 8.8 or 44 µM methotrexate (about 75% and 90% inhibition of the wild type). Selection coefficient per generation; 0 = like wild type, above 0 = less sensitive, below 0 = more sensitive or loss of function. No active / inactive call per row; the paper calls resistant above 0.220 (8.8 µM) or 0.243 (44 µM) together with a significance test. At 44 µM about 15% of codons end with one read or none, so the lowest values are floors (replicate rank correlation 0.74; 0.94 at 8.8 µM).
B1: UniProt A0EPZ9; numbered along this chain (parent)
chain: MDWQKSLTLIVALTLSRGIGLKNDLPWKLKSDMMFFSRVTSGLLVTRSTGQMNVVLMGRKTWESLPAHSRPLKNRINVVISRQEVLDLGGGAYHARSLDDALALLSQIYDSTSKIQLNRVFVIGGGELCKAAMEHSRLNRIIATVIHNEVDCDVFFPIDFRSSQSCLPWRKQDHSVLEAWVGSKVPQGKINENGFIYEFEMWIRDI

Variants of: B1
Test: selection coefficient against synonymous wild-type codons (log2 per generation); higher = faster growth than wild type
Details: with Saccharomyces cerevisiae carrying the variant on a plasmid
Procedure: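 Pooled growth of yeast carrying single-residue variants of P. jirovecii dihydrofolate reductase (own DFR1 gene intact), two passages at 30 °C, three cultures, sequenced before and after. Codons with under 15 starting reads are left out; codons of one change are averaged.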

MYWQKSLTLIVALTLSRGIGLKNDLPWKLKSDMMFFSRVTSGLLVTRSTGQMNVVLMGRKTWESLPAHSRPLKNRINVVISRQEVLDLGGGAYHARSLDDALALLSQIYDSTSKIQLNRVFVIGGGELCKAAMEHSRLNRIIATVIHNEVDCDVFFPIDFRSSQSCLPWRKQDHSVLEAWVGSKVPQGKINENGFIYEFEMWIRDI [D2Y] was tested, and the “selection coefficient against synonymous wild-type codons (log2)” value (“selection coefficient … (log2)” for short) (methotrexate 8.8 µM) was 0.0525 ± 0.1 and the “selection coefficient … (log2)” value (methotrexate 44 µM) was -0.0299 ± 0.093.

For MWWQKSLTLIVALTLSRGIGLKNDLPWKLKSDMMFFSRVTSGLLVTRSTGQMNVVLMGRKTWESLPAHSRPLKNRINVVISRQEVLDLGGGAYHARSLDDALALLSQIYDSTSKIQLNRVFVIGGGELCKAAMEHSRLNRIIATVIHNEVDCDVFFPIDFRSSQSCLPWRKQDHSVLEAWVGSKVPQGKINENGFIYEFEMWIRDI [D2W], the “selection coefficient … (log2)” value (methotrexate 8.8 µM) was -0.0812 ± 0.11 and the “selection coefficient … (log2)” value (methotrexate 44 µM) was -0.119 ± 0.097.

MDDQKSLTLIVALTLSRGIGLKNDLPWKLKSDMMFFSRVTSGLLVTRSTGQMNVVLMGRKTWESLPAHSRPLKNRINVVISRQEVLDLGGGAYHARSLDDALALLSQIYDSTSKIQLNRVFVIGGGELCKAAMEHSRLNRIIATVIHNEVDCDVFFPIDFRSSQSCLPWRKQDHSVLEAWVGSKVPQGKINENGFIYEFEMWIRDI [W3D] was tested, and the “selection coefficient … (log2)” value (methotrexate 8.8 µM) was 0.113 ± 0.031 and the “selection coefficient … (log2)” value (methotrexate 44 µM) was 0.159 ± 0.046.

In the case of MDCQKSLTLIVALTLSRGIGLKNDLPWKLKSDMMFFSRVTSGLLVTRSTGQMNVVLMGRKTWESLPAHSRPLKNRINVVISRQEVLDLGGGAYHARSLDDALALLSQIYDSTSKIQLNRVFVIGGGELCKAAMEHSRLNRIIATVIHNEVDCDVFFPIDFRSSQSCLPWRKQDHSVLEAWVGSKVPQGKINENGFIYEFEMWIRDI [W3C], the “selection coefficient … (log2)” value (methotrexate 8.8 µM) is reported as 0.0397 ± 0.011 and the “selection coefficient … (log2)” value (methotrexate 44 µM) is reported as 0.0894 ± 0.059.

For MDFQKSLTLIVALTLSRGIGLKNDLPWKLKSDMMFFSRVTSGLLVTRSTGQMNVVLMGRKTWESLPAHSRPLKNRINVVISRQEVLDLGGGAYHARSLDDALALLSQIYDSTSKIQLNRVFVIGGGELCKAAMEHSRLNRIIATVIHNEVDCDVFFPIDFRSSQSCLPWRKQDHSVLEAWVGSKVPQGKINENGFIYEFEMWIRDI [W3F], the “selection coefficient … (log2)” value (methotrexate 8.8 µM) was -0.122 ± 0.067 and the “selection coefficient … (log2)” value (methotrexate 44 µM) was 0.137 ± 0.072.

In the case of MDGQKSLTLIVALTLSRGIGLKNDLPWKLKSDMMFFSRVTSGLLVTRSTGQMNVVLMGRKTWESLPAHSRPLKNRINVVISRQEVLDLGGGAYHARSLDDALALLSQIYDSTSKIQLNRVFVIGGGELCKAAMEHSRLNRIIATVIHNEVDCDVFFPIDFRSSQSCLPWRKQDHSVLEAWVGSKVPQGKINENGFIYEFEMWIRDI [W3G], the “selection coefficient … (log2)” value (methotrexate 8.8 µM) is reported as 0.314 ± 0.11 and the “selection coefficient … (log2)” value (methotrexate 44 µM) is reported as 0.332 ± 0.12.

With MDEQKSLTLIVALTLSRGIGLKNDLPWKLKSDMMFFSRVTSGLLVTRSTGQMNVVLMGRKTWESLPAHSRPLKNRINVVISRQEVLDLGGGAYHARSLDDALALLSQIYDSTSKIQLNRVFVIGGGELCKAAMEHSRLNRIIATVIHNEVDCDVFFPIDFRSSQSCLPWRKQDHSVLEAWVGSKVPQGKINENGFIYEFEMWIRDI [W3E] the “selection coefficient … (log2)” value (methotrexate 8.8 µM) was 0.352 ± 0.024 and the “selection coefficient … (log2)” value (methotrexate 44 µM) was 0.388 ± 0.036.

In the case of MDAQKSLTLIVALTLSRGIGLKNDLPWKLKSDMMFFSRVTSGLLVTRSTGQMNVVLMGRKTWESLPAHSRPLKNRINVVISRQEVLDLGGGAYHARSLDDALALLSQIYDSTSKIQLNRVFVIGGGELCKAAMEHSRLNRIIATVIHNEVDCDVFFPIDFRSSQSCLPWRKQDHSVLEAWVGSKVPQGKINENGFIYEFEMWIRDI [W3A], the “selection coefficient … (log2)” value (methotrexate 8.8 µM) is reported as 0.357 ± 0.04 and the “selection coefficient … (log2)” value (methotrexate 44 µM) is reported as 0.324 ± 0.097.
